Reference: the antibiotic and cytotoxicity screens of Wong et al. (2023)
Some of the results follow.

The molecules below were run on HepG2 (assay: cytotoxicity call (relative viability < 0.9)). Settings: 10 µM.

SMILES	cytotoxicity call
COc1ccc(CN(C)C[C@@H]2OCCCC[C@H](C)Oc3ccc(NS(=O)(=O)c4ccc(C)cc4)cc3C(=O)N([C@H](C)CO)C[C@H]2C)cc1	inactive
C[C@@H]1CN([C@@H](C)CO)C(=O)c2cc(NC(=O)Nc3cccc4ccccc34)ccc2O[C@@H](C)CCCCO[C@@H]1CN(C)S(=O)(=O)c1cn(C)cn1	inactive
CCO[C@@H]1OC(C(=O)N2CCN(Cc3ccc4c(c3)OCO4)CC2)=C[C@H](c2csc3ccccc23)[C@H]1CCCOC(=O)NCCCCCC(=O)NO	inactive
C[C@@H]1CN([C@@H](C)CO)C(=O)c2cc(NC(=O)C3CCCCC3)ccc2O[C@@H](C)CCCCO[C@H]1CN(C)C(=O)Cc1ccccc1	inactive
NCc1ccc2nsnc2c1	inactive
C[C@@H]1CN([C@@H](C)CO)C(=O)c2c(c3ccccc3n2C)-c2ccccc2CO[C@H]1CN(C)Cc1ccccc1C(F)(F)F	inactive
Cc1ccc(S(=O)(=O)N[C@H]2CC[C@@H](CC(=O)NCc3ccc(Cl)c(Cl)c3)O[C@@H]2CO)cc1	inactive
CC(=O)c1cc(Cl)c(C)cc1O	inactive
O=C(C[C@@H]1C=C[C@H](NC(=O)Nc2cc(F)ccc2F)[C@H](CO)O1)NCCCN1CCOCC1	inactive
COC(=O)c1c(C)cc(OC(=O)c2c(C)cc(O)c(CO)c2O)c(C)c1O	inactive
C[C@@H]1CN([C@H](C)CO)C(=O)c2cccc(NC(=O)c3ccncc3)c2O[C@@H]1CN(C)C(=O)Nc1ccc2c(c1)OCO2	inactive
COc1ccc(CN2C[C@H](C)[C@@H](OC)CN(C)C(=O)c3ccc(NC(=O)c4nc5ccccc5s4)cc3OC[C@H]2C)cc1	inactive
O=C(O)CCNC(=O)c1ccccc1	inactive
C[C@H]1CN([C@@H](C)CO)C(=O)c2cccc(NC(=O)Nc3cccc4ccccc34)c2O[C@H]1CN(C)C(=O)NC1CCCCC1	inactive
COc1ccc(CN(C)C[C@H]2Oc3ccc(NS(=O)(=O)c4c(C)noc4C)cc3C(=O)N([C@@H](C)CO)C[C@@H]2C)cc1	inactive
C[C@H](CO)N1C[C@H](C)[C@H](CN(C)Cc2ccc3c(c2)OCO3)OCCCC[C@H](C)Oc2ccc(NC(=O)Nc3ccc4c(c3)OCO4)cc2C1=O	active
Cc1cc(C(=O)Nc2cccc3c2O[C@H](CN(C)C(=O)Nc2ccc4c(c2)OCO4)[C@@H](C)CN([C@@H](C)CO)C3=O)n(C)n1	inactive
COc1ccc(S(=O)(=O)N2C[C@H](O)COC[C@@H]3O[C@@H](CC(=O)NCCCN(C)C)CC[C@H]32)cc1	inactive
C[C@@H]1CN([C@@H](C)CO)C(=O)c2cc(NC(=O)CCN3CCOCC3)ccc2O[C@H]1CN(C)C(=O)Nc1ccccc1	inactive
Cc1noc(C)c1NC(=O)Nc1ccc2c(c1)CC(=O)N([C@@H](C)CO)C[C@H](C)[C@H](CN(C)C(=O)NC(C)C)O2	inactive

SMILES	cytotoxicity call
CC(C)NC(=O)N(C)C[C@H]1Oc2ccc(NC(=O)NC3CCCCC3)cc2CC(=O)N([C@H](C)CO)C[C@H]1C	inactive
COc1ccc2c3c(n(c2c1)C)[C@@H](CO)N(C[C@]13CCN(CC1)C(=O)c1ccccn1)C(=O)c1ccccn1	inactive
CC(C)=CCCC1(C)C=Cc2c(O)c3c(c(CC=C(C)C)c2O1)OC12C(=CCCC1C(C)(C)OC2(CC=C(C)C(=O)O)C(=O)O)C3=O (centres undefined)	inactive
C[C@H](CO)N1C[C@H](C)[C@H](CN(C)C(=O)Nc2ccccc2)Oc2c(NS(C)(=O)=O)cccc2C1=O	inactive
CC(C)NC(=O)Nc1ccc2c(c1)C(=O)N([C@H](C)CO)C[C@H](C)[C@@H](CN(C)Cc1ccc(Cl)c(Cl)c1)OCCCC[C@@H](C)O2	inactive
C[C@@H]1CCCCO[C@@H](CN(C)S(C)(=O)=O)[C@@H](C)CN([C@@H](C)CO)C(=O)c2cc(NS(=O)(=O)c3ccccc3)ccc2O1	inactive
COc1ccc(NC(=O)N(C)C[C@H]2OCCCC[C@H](C)Oc3ccc(NC(=O)NC(C)C)cc3C(=O)N([C@H](C)CO)C[C@@H]2C)cc1	inactive
NCCN1CCO[C@@H](CC(=O)Nc2cc(Cl)cc(Cl)c2)C1=O	inactive
N#CC1CC2CC2N1C(=O)C(N)C12CC3CC(CC(O)(C3)C1)C2 (centres undefined)	inactive
COc1ccc2c3c(n(c2c1)C)[C@H](CO)N(Cc1cc(cc(c1)OC)OC)C[C@]13CN(C1)C(=O)NC(C)C	inactive
C[C@H]1CCCCO[C@H](CN(C)C(=O)Cc2ccccc2)[C@@H](C)CN([C@@H](C)CO)C(=O)c2cc(NC(=O)Nc3ccc(F)cc3)ccc2O1	inactive
C[C@H]1CN([C@@H](C)CO)C(=O)Cc2cc(NC(=O)C3CC3)ccc2O[C@H]1CN(C)C(=O)Nc1ccccc1	inactive
C[C@H]1CN([C@@H](C)CO)C(=O)Cc2cc(NC(=O)Cn3cnnn3)ccc2O[C@H]1CN(C)S(=O)(=O)c1ccc(Cl)cc1	inactive
O=C(Cn1cc(COc2ccc(-n3cccc3)cc2)nn1)NS(=O)(=O)c1ccccc1C(F)(F)F	inactive
C[C@H]1CN([C@@H](C)CO)C(=O)Cc2cc(NC(=O)Nc3cccc4ccccc34)ccc2O[C@H]1CN(C)Cc1ccc(C(=O)Nc2ccccc2N)cc1	inactive
CN(C)C(=O)C[C@@H]1CC[C@H]2[C@@H](COC[C@@H](O)CN2S(=O)(=O)c2ccccc2)O1	inactive
COC(=O)c1c2oc(c1C(=O)OC)C(=O)N[C@H](Cc1ccccc1)Cn1cc(nn1)[C@H](Cc1ccccc1)NC(=O)N[C@H](CO)CC2	inactive
C[C@@H]1CCCCO[C@@H](CN(C)CC2CCCCC2)[C@H](C)CN([C@@H](C)CO)C(=O)c2cc(NC(=O)Nc3ccc(F)cc3)ccc2O1	active
C[C@H](CO)N1C[C@H](C)[C@@H](CN(C)Cc2ccc3c(c2)OCO3)Oc2ccc(NC(=O)CCN3CCOCC3)cc2CC1=O	inactive
